The RNAGym collection of RNA variant scans (doi:10.7554/elife.90254)
The source gives no read counts; variants with many changes may rest on few reads.

B1: LINE1-mini (parent)
chain: GGCAGAGCUCAACACAGCGUGGCAAAGUGGCUGUGGCUAGACUGCC

Variants of: B1
Test: self-cleavage, relative activity (ratio to wild type); higher = more cleavage; in vitro, sequencing; the parent is a self-cleaving ribozyme
Variant GGCAGAGCGCAACACUGCGUGGCAAAGAGGCGGUGGCUAGACUGCC [U9G A16U U28A U32G] has a self-cleavage of 0.05. With GGCAGAGCCCAACACAGCGUGGCAAAGGGGCUGUGGCUAGAUUGCC [U9C U28G C42U] the self-cleavage was 0.03. Variant GGCAGAGCCCAACACAGCGUGACAAAGUGGCCGUGGCUAGACUGCC [U9C G22A U32C] has a self-cleavage of 0.02. For GGCAGAGCGCAACAAAGCGUGGUAACGUGGCUGUGGCUAGACUGCC [U9G C15A C23U A26C], the self-cleavage was 0.02. With GGCAGAGCCCAACACAGCUUGCCAAAGUGGCUGUGGCUAGACUGCC [U9C G19U G22C] the self-cleavage was 0.04. GGCAGAGCGUAACAUAACGGGGCAAAGUGGCCGUGGAUUGACUGAC [U9G C10U C15U G17A U20G U32C C37A A39U C45A] gave a self-cleavage of 0.02. With GGCAGAGCGCAACACAGCGUGGCCAUGUGGCUGUGGCUAGACUGCC [U9G A24C A26U] the self-cleavage was 0.04. In the case of GGCAGAGCGAAACACAGCGUGGCAAAGUGGCUGUGGCUAUACCGAA [U9G C10A G40U U43C C45A C46A], the self-cleavage is reported as 0.02. GGCAGAGCGGAACACAGCGUAGAAAAGUGGCUGUGGCUAUACUGCU [U9G C10G G21A C23A G40U C46U] gave a self-cleavage of 0. GGCAGAGCGCAAAACAGCGUGGCCAAGUGGCUGUGGCUAGACUGCC [U9G C13A A24C] gave a self-cleavage of 0.11. GGCAGAGCCCAACACAUCGUGGCAAAAUGGCUAUGGCUAGACUGCC [U9C G17U G27A G33A] gave a self-cleavage of 0.03. For GGCAGAGCGAAACACACCGUGGCAAAGUGGCUGUGGCUAGAAUGCC [U9G C10A G17C C42A], the self-cleavage was 0.01. In the case of GGCAGAGCGCAACACCGCCUGGCAAAGUGGCUGUGGCUAGACUGCC [U9G A16C G19C], the self-cleavage is reported as 0.15. GGCAGAGCGGCACAUAGCGUAGCAAAGUGGCUGUGGCUAGACUGCC [U9G C10G A11C C15U G21A] gave a self-cleavage of 0.01. Work on GGCAGAGCGCAACCCAGCGAGGCAAAGUAGCUGUGGCUAGGCUGCC [U9G A14C U20A G29A A41G] yielded a self-cleavage of 0.01. GGCAGAGCGCCACACAGCGUGGCAAAGUGGCCGUGGCUAGACCGCC [U9G A11C U32C U43C] gave a self-cleavage of 0. GGCAGAGCGCAACACUGCGUGGCAAAGUGGCUGUCGCUGGACUGCU [U9G A16U G35C A39G C46U] showed a self-cleavage of 0.03. For GGCAGAGCGCAAGACAGCGUGGCAUAGUGGCUGUGGCUAGACUGCC [U9G C13G A25U], the self-cleavage was 0.06. With GGCAGAGCCCAACACAGCGUGGCAAAGUUGCUGUGGCUAGUCUGCC [U9C G29U A41U] the self-cleavage was 0.04. GGCAGAGCGAAACACAGUGUGGCAAAGUGGCUGUGGCUAGACUGCG [U9G C10A C18U C46G] showed a self-cleavage of 0. GGCAGAGCGUAACACGUCGUGGCAAAGUGGCUGUGGCUAGACUGCC [U9G C10U A16G G17U] gave a self-cleavage of 0.08. GGCAGAGCCCAACACAGCGUGCUAAAGUAGCUGUGGCUUGACAGCC [U9C G22C C23U G29A A39U U43A] gave a self-cleavage of 0.05. With GGCAGAGCGCAACACUGCGUGGCAAAGUGGCUGUGCCUAGACUGCA [U9G A16U G36C C46A] the self-cleavage was 0.02. With GGCAGAGCCCAACACAGCGUUGCAAAGUGCUUUUGGCUAGAAUGCC [U9C G21U G30C C31U G33U C42A] the self-cleavage was 0.02. Variant GGCAGAGCCCAACACAGCGUGCCAAAGUGGCUGUGUCUAGACUGCC [U9C G22C G36U] has a self-cleavage of 0.01. Variant GGCAGAGCGCCACACAGCGUGGCAAAGUGGCUGUGGCUAGAGUGCC [U9G A11C C42G] has a self-cleavage of 0.01. Work on GGCAGAGCCCAACACAGCGUGGCAAAGUUGCUGUGGAUAUACUGAC [U9C G29U C37A G40U C45A] yielded a self-cleavage of 0.02. For GGCAGAGCGCAACACAGCGUGGCAUAGUGGCUGUGGCUAGACUGAC [U9G A25U C45A], the self-cleavage was 0.05. Work on GGCAGAGCGCAACAGAGCGUGGCAAAGUGGCUGUGGUUAGACUGCC [U9G C15G C37U] yielded a self-cleavage of 0.09. Work on GGCAGAGCGGAACACAGCAUGGCAAAGUGGCUGUGGCUAGACUGCC [U9G C10G G19A] yielded a self-cleavage of 0.02. Variant GGCAGAGCGCAACACGGCGUGUCAAAGUGGCUGUGGCUAGACUGUG [U9G A16G G22U C45U C46G] has a self-cleavage of 0.07. In the case of GGCAGAGCGAAACACAGCGUGGCAAAGUGGCUGUGGCUAGACAGCG [U9G C10A U43A C46G], the self-cleavage is reported as 0.01. With GGCAGAGCGCAAUACAGCGUGGCAAAGUGGCUGUGGCUAGAUUGCC [U9G C13U C42U] the self-cleavage was 0.07. With GGCAGAGCCCAACACAGCGUGGCAAAGUGGCUCUUGCUAGACUGCC [U9C G33C G35U] the self-cleavage was 0.03. Work on GGCAGAGCGCAACACAGCGUGGCAACGUGGGUGUCGCUAGACUGCC [U9G A26C C31G G35C] yielded a self-cleavage of 0.02. Variant GGCAGAGCGCAACACAGCGUGGCGCAGUGGCUGUGGCUAGAUUGCC [U9G A24G A25C C42U] has a self-cleavage of 0.02. In the case of GGCAGAGCGCAACACAGCGUGGCAAGGUGGCUGUGGCUAGCCUGCC [U9G A26G A41C], the self-cleavage is reported as 0.02. GGCAGAGCCCAACACAGCGUGGCAAAGUAGCGGUGGCUAGACUGCC [U9C G29A U32G] gave a self-cleavage of 0.01. GGCAGAGCGCUACACAGCGUGACAAGGUGGCUGUGGCUAGACUGCC [U9G A11U G22A A26G] gave a self-cleavage of 0.01. For GGCAGAGCGCAACAGAGCGCGGCAAAGUGGCUGUGGCUAGACUGCC [U9G C15G U20C], the self-cleavage was 0.07. GGCAGAGCGCAAGACAGCGUGUCAAAGUGGCUGUGGCUAAACUGCC [U9G C13G G22U G40A] showed a self-cleavage of 0.02. For GGCAGAGCGCUACACAGCGGGGCAAAGUGGCUGUUUCUAGACUGCC [U9G A11U U20G G35U G36U], the self-cleavage was 0.01. GGCAGAGCGCAAUAGAGCGUGGCAAAGUCGCUGUGGCUAGACUGCC [U9G C13U C15G G29C] gave a self-cleavage of 0.11. GGCAGAGCCCAACACAGCGUAGCAAAGUGGCGGCGGCUAGACUGCC [U9C G21A U32G U34C] showed a self-cleavage of 0.01. GGCAGAGCGCAUCACAGCGUGGCAAAGUAGCUGUGGCUAGACUGCC [U9G A12U G29A] gave a self-cleavage of 0.04. For GGCAGAGCGCGACACAGCGUGGCAUAGUGGCUGUGGCUAGACUGCC [U9G A11G A25U], the self-cleavage was 0. Variant GGCAGAGCCCAACACAGCGUGGCAAAGUGGCUGAGGGUAGACUGCC [U9C U34A C37G] has a self-cleavage of 0.03. With GGCAGAGCGAAACACAGCGUGGCAAAGUGGCUCUGGCUAUACUGCC [U9G C10A G33C G40U] the self-cleavage was 0.01. Work on GGCAGAGCGCAACUCAGCGUGGCAAAGUGGCUAUGGCUAGACUGCC [U9G A14U G33A] yielded a self-cleavage of 0.16. Variant GGCAGAGCCCAACACACUGUGGCAAAGUUGCUGUGGCUAGACUGCC [U9C G17C C18U G29U] has a self-cleavage of 0.01. GGCAGAGCGCAACAAAGCGUGCCAAAGUGGCUGUGGCUAGACUGCC [U9G C15A G22C] showed a self-cleavage of 0.03. Variant GGCAGAGCCCAACACAGCGUGGCAAAGUGGCUAUGUCUAGACUGCC [U9C G33A G36U] has a self-cleavage of 0.05. GGCAGAGCCCAACACAGCGCGGCAAAGUGGCUGUUGCUAGACUGCC [U9C U20C G35U] gave a self-cleavage of 0. For GGCAGAGCCCAACACAGCGUGCCAAAGUGGCUGUGGAUAGACUGCC [U9C G22C C37A], the self-cleavage was 0.05. Work on GGCAGAGCCCAACACAGCGGGGCAAAGUGGCCGUGGCUAGACUGCC [U9C U20G U32C] yielded a self-cleavage of 0.01. GGCAGAGCGCAACACAGCGUGGCAACGUGGCUGUGGCUGGCCUGCC [U9G A26C A39G A41C] showed a self-cleavage of 0.
